# The whole screen tested about 150,000 compounds, of which about 540 (0.36%) showed an effect of 50% or more. Some of the results follow.
# Tested on: Plasmodium falciparum
# Test: Primary screen in NF54 nanoGlo assay, in single point, at 2uM, 72h; a lower Z score goes with more inhibition
# Format: functional, Erythrocyte
# Settings: timepoint 72 hour
Structure (SMILES),% Inhibition,Z score
O=C(CCc1cnccn1)N1CCC[C@H](c2ccc(F)cc2)CC1,-14%,1.88
c1ccc2c(c1)CCC(CN1CCCC(c3nnc4n3CCC4)C1)C2 (configuration not stated),-4%,0.52
Cc1cccc2c1N(S(=O)(=O)c1c(C3OCCO3)cnn1C)CC2,9%,-1.8
O=C(CN1C(=O)NC2(CCCC2)C1=O)N1CCC(c2nc3ccccc3o2)CC1,-10%,1.36
CCOc1ccc(NC(=O)C2[C@@H]3C=C[C@]4(O3)C(C(=O)NC3CCCCC3C)N(Cc3ccc5c(c3)OCO5)C(=O)[C@H]24)cc1 (some centres not stated),-12%,1.83
Cc1c(Cl)ccc2c(C(=O)N3CCCC[C@@H]3C)cc(-c3cccnc3)nc12,-18%,2.13
CN(C[C@H]1CCCCN1C)C(=O)[C@H]1CC[C@@H](O)CC1,-2%,0.35
CCn1nc(C)cc1C(=O)Nc1nc2c(OC)cccc2n1C,12%,-1.91
O=C(NC[C@H]1OC[C@@H](NCc2cccs2)[C@@H]1O)c1ccc(F)cc1,-2%,0.31
Cn1nnc(CNC(=O)C2=CCCCCC2)n1,-18%,1.9
CC(NCC1CCCS1(=O)=O)c1ccc(F)cc1OC(F)F (configuration not stated),-1%,0.1
CC(C)c1nccc(N2CCC[C@H](Cn3cncn3)C2)n1,-6%,1.11
CC1c2ccsc2CCN1C(=O)C1CC12CC2 (configuration not stated),-4%,0.81
CCCN(CC(=O)N1CCCCC1)C1C2CCOC2C1(C)C (configuration not stated),3%,-0.61
CN(c1ccc(NC(=O)N2CCC[C@H](c3nncn3C)C2)cc1F)C1CCCCC1,-13%,1.69
Cc1ccc(NC(=O)CN2CC(=O)NC2=O)cc1OCc1cccc(Cl)c1,0%,0.04
COc1ccc(-n2ncc(Oc3ccc(Cl)cc3)c(Nc3cccc(C(=O)NC4CC4)c3)c2=O)cc1,9%,-0.86
C[C@H]1CCCN(CCC(=O)N2CCc3onc(-c4ccccc4)c3C2)C1,-7%,1.38
CCN(C(=O)c1cnn(C)c1)c1ccccc1,4%,-0.58
CCO[C@H]1C[C@@H](O)C12CCN(C(=O)CCc1cnn(C)c1)CC2,-6%,1.1
NCc1ccnc(OCC2CC(F)(F)C2)c1,1%,-0.14

Structure (SMILES),% Inhibition,Z score
COc1ccc([C@@H]2N(c3ccc(Cl)cc3)OC(=O)N2c2ccccc2)cc1,1%,-0.09
CCS(=O)(=O)C1CN(C(=O)c2ccc(OCC(C)C)nc2)C1,-5%,0.91
CCn1nc(C(=O)NCc2ccncc2)c2c1CC[C@H](NCc1ccc(C)c(F)c1)C2,-1%,0.13
CCC(C)C(C)NC(=O)N1CCCC(c2nn(-c3ccccc3)cc2C(N)=O)C1 (configuration not stated),-14%,1.51
O=C(c1cc(C2CC2)on1)N1CC(c2nc(-c3ccncc3)no2)C1,-14%,2.69
Cc1cc(Cn2ccc(-c3cccc(-c4nccc5occc45)c3)n2)no1,-10%,0.92
Cc1cnccc1CNC(=O)N1CCN(c2nccnc2C#N)C[C@@H]1C,-9%,1.34
C=C[C@H]1OCC[C@@H]1NC(=O)c1c(O)cc(Cl)cc1Cl,-11%,1.41
COc1ccc(CC(=O)N2CC3(C[C@@H](c4noc(-c5ccccn5)n4)N(C)C3)C2)cc1,-11%,1.24
Cc1cc(NC(=O)C2CCOCC2)sn1,0%,-0.02
CCCCNC(=O)c1c(NC(=O)[C@@H]2CCCCO2)nc(C)n1C,4%,-0.83
CC1(C)CCc2nnc(Cn3ccc4ccccc43)n2C1,-20%,3.06
COC[C@H]1CCN(C(=O)Nc2ccc3c(c2)Nc2ccccc2CC3)C1,-11%,1.34
CN1CC2(C[C@H]1C(=O)NCc1ccc(N3CCOCC3)cc1)CN(Cc1ccccc1)C2,5%,-0.94
Cc1ncsc1CCN(C)[C@@H](C(=O)O)c1ccc(N2CCCCC2)nc1,-11%,1.37
CC(Cc1ccccc1)(NC(=O)C1CCCN(C(=O)c2ccoc2)C1)C(=O)O (configuration not stated),-9%,1.33
COc1ccc(CNC(=O)C2CCN(S(=O)(=O)N3CCC(C)CC3)CC2)c(OC)c1,-3%,0.4
CCOc1ccc(CNc2cc(C(=O)NCCCn3ccnc3)cc(S(=O)(=O)N(C)C)c2)cc1,0%,-0.05
Cc1ncc2n1CC[C@H](C(=O)Nc1ccc(C3CC3)cn1)C2,5%,-0.62
COc1cccc(S(=O)(=O)N2CCc3c(c(-c4nc(-c5ccccc5)no4)nn3C)C2)c1,4%,-0.44
O=C(N[C@H]1CCS(=O)(=O)C1)c1ccc(S(=O)(=O)c2ccccc2)o1,-8%,1.07

Structure (SMILES),% Inhibition,Z score
Cn1c(-c2ccc(Cl)c(Cl)c2)c[n+](CC(=O)c2cccc(Br)c2)c1N,5%,-0.77
C[C@H](O)c1nc2cc(-c3ccc(CCC(=O)O)cc3)ccc2[nH]1,-18%,1.94
COCCN(CC(=O)NCc1ccccc1F)Cc1cccnc1,-2%,0.28
NC(=O)Nc1ccc(NC(=O)c2ccc3c(c2)CCCC3)cc1,-4%,0.77
Cc1ccc(NC(=O)CC(C)(C)CC(=O)N2CCc3ccccc3C2)cc1Cl,-1%,0.2
O=C(CS(=O)(=O)Cc1csc(-c2cccs2)n1)Nc1ccc(F)cc1F,-12%,1.52
O=C(c1nc2ccc(Cl)cn2c1CNCCc1cnccn1)N1CCCCCCC1,-5%,0.74
CC(C)CC1NC(=O)N(C2CC3CCC2O3)C1=O (configuration not stated),-7%,0.93
CCCc1nc(C)cc(N2CCC3(CCC(=O)N(Cc4cccnc4)C3)CC2)n1,17%,-2.29
Cc1ccc(F)c(OC2(C(=O)O)CCN(C[C@H]3CCOC3)CC2)c1,-9%,1.16
O=C1C[C@H](NCc2ccco2)C(=O)N1CCc1ccccc1,-6%,1.21
COc1cccc(-c2ccc(N3CCN(C(=O)CN(Cc4ccc5c(c4)OCO5)C(=O)c4ccccc4F)CC3)nn2)c1,0%,-0.02
COc1cc(Cl)ccc1C(=O)N1CC[C@H](CN2CCCCC2)C1,4%,-0.4
Cc1ccc2oc(CN3CCC[C@@]4(CCS(=O)(=O)C4)C3)cc2c1,-4%,0.66
COc1cccc([C@@H]2CCN2C(=O)c2cc(C)c(C)c(S(N)(=O)=O)c2)c1,-5%,0.83
CC(C)(C)C(=O)N1CCC(Cn2cncc(-c3ccccc3)c2=O)CC1,28%,-3.51
COCCNC(=O)NCC#CCN1CCc2ccccc2C1,-7%,0.85
CCCS(=O)(=O)N(CCOC)CC(=O)N(Cc1ccc(Cl)cc1)C1CCN(C(=O)NCC)CC1,-5%,0.67
O=C(CN1C(=O)CCCc2cc(S(=O)(=O)N3CCOCC3)ccc21)Nc1ccc2c(c1)OCO2,-7%,0.87
CN1CCN(C(=O)c2nccc3ccsc23)C(C)(C)C1,-8%,0.81
CCOC(=O)N1CCN(c2cn[nH]c(=O)n2)CC1,-15%,2.01

Structure (SMILES),% Inhibition,Z score
CCC(CC)N(CC(=O)N1CCN(S(C)(=O)=O)CC1)c1ccc(C)c(C)c1,-1%,0.12
Cc1nn(C)c(C)c1S(=O)(=O)N1C(C)C(=O)NC(C)C1C (configuration not stated),-9%,1.84
Cc1cnc(CNC(=O)[C@H]2CCO[C@@H]2c2ccccc2)c(C)c1,3%,-0.58
Cc1c2c(nc3c(S(=O)(=O)c4ccccc4)c(N4CCNCC4)nn13)CCC2,-4%,0.76
CCN(CC(=O)Nc1ccc2c(c1)OCCO2)C(=O)[C@H](C)Oc1ccc(Cl)cc1,3%,-0.43
COc1cccc2c(=O)n(CC3CCCC3)ncc12,-5%,0.55
C[C@@H](C(=O)NC(N)=O)N(C)Cc1cc(Br)ccc1F,-6%,0.86
C[C@H]1CCCCN1C(=O)c1ccc(NCc2cn(C(C)(C)C)nn2)cc1Cl,-9%,1.2
CCN(CC1CCCO1)C(=O)CC1(c2ccccc2)CC(=O)N(Cc2ccc3c(c2)OCO3)C1=O (configuration not stated),-2%,0.28
Cc1c(C#N)c(NC(=O)[C@H]2CCCO2)n2ccccc12,4%,-0.81
CCc1nc(C)c(C(=O)Nc2ccccc2CCC(=O)NC)o1,-8%,1.51
CC(C)c1nc2n(n1)C1(CCCCC1)[C@@H]1CCCC[C@@H]1N2,-4%,0.64
CC1CC1N1CC(NC(=O)Nc2ccccc2Cl)CC1=O (configuration not stated),-2%,0.24
CC(C)C[C@@]1(C2CCN(Cc3cccnc3)CC2)NC(=O)N(CCc2cccs2)C1=O,-4%,0.63
C[C@H]1OCC[C@H]1NCc1cscc1C(F)(F)F,-8%,1.11
Cc1cccc(N2CCC(NC(=O)c3c(-c4ccccn4)noc3C)CC2)n1,-5%,0.74
COC[C@@](O)(CNS(=O)(=O)c1ccc(-n2cccn2)cc1)c1ccccc1,-9%,1.55
CCc1csc(CC2CCN(Cc3ccccc3C(=O)O)CC2)n1,-5%,0.86
